Reference: publication PMC12136788
Some of the results follow.

B1: chr2:213007362:213008084:-|CDS|ENSG00000030419|control|control|control (ssRNA)
RNA: GGGAGUUCUACAGUCCGACGAUCCAAUGGAGAAGGAGAACAGAUUAGGGCCUUCAAGUGUGAGCACUGCCGAGUCCUUUUCCUAGACCAUGUCAUGUACACCAUUCACAUGGGUUGCCAUGGCUACCGGGACCCACUGGAAUGCAACAGAGGAUUGAGCAUCA
B2: ENSG00000198589:be:win_9201|3pUTR|ENSG00000198589|bound_else_gene|NA|bound_elsewhere_windowed (ssRNA)
RNA: GGGAGUUCUACAGUCCGACGAUCACCAUUUUUUCCUGAUCUGUCAUCUUCAUAGCACAACAAAACGAAAUGAUGGAAAUGCUCUUGAGCUCACAACAUUUGUUUUUCUUUUAAAGUAAAUGCAAGUACCAAAGCUCACUACUGCAACAGAGGAUUGAGCAUCA
B3: chr2:216672374:216672548:-|3pUTR|ENSG00000115461|msi1|total|mutant (ssRNA)
RNA: GGGAGUUCUACAGUCCGACGAUCUUUUUCUUUUUUUUUUUGAAGACAGCAAUAACCACAGUACAUAUUACUGCCGUUCUCUACCGUUUUACAUACAUUCAUACCAUAACUCUGUUCUCUCCUCUUUUUUGUUUUCAACUUUAACAACAGAGGAUUGAGCAUCA
B4: ENSG00000198589:be:win_4801|CDS|ENSG00000198589|bound_else_gene|NA|bound_elsewhere_windowed (ssRNA)
RNA: GGGAGUUCUACAGUCCGACGAUCCGAAGGAGGGACUCAGGCAUUGGGGAAGAAACAGCCACUGGUUUAGGAAGCCAUGUGGAAGUAACUCCUCACACAGCACCUCCUGGUGUCAGUGCAGGCCCAGAUGCAAUCAGCGAGGUGCAACAGAGGAUUGAGCAUCA
B5: chr1:235113809:235113910:-|CDS|ENSG00000173726|msi1_unk|total|mutant (ssRNA)
RNA: GGGAGUUCUACAGUCCGACGAUCAGGCUUUUCAGGUUACAUGUAAUUUUAUGUAAAUCUUACAGGUGAAUAUGAGAAGGGCGCCGACCAUCUGACAAAUGCAAUUGCUGUGUGUGGACAGCCACAGCAGUUACUGCAGGUCUUCAACAGAGGAUUGAGCAUCA
B6: chr17:73284618:73284719:-|3pUTR|ENSG00000179604|msi1|total|mutant (ssRNA)
RNA: GGGAGUUCUACAGUCCGACGAUCGGGCACUCGCUCAGUCCCCCGGGGCUUGUUUGUUCUUUAUUAUUGUGUUUAAAUCCUUACCGAGCAAUAUCAGGAUGGUGUUAACCGGUCUGCCUCAGAAUGAGAAUCAAUCCUUUCCGACAACAGAGGAUUGAGCAUCA
B7: chr4:38700566:38700667:+|3pUTR|ENSG00000109787|unk|total|mutant (ssRNA)
RNA: GGGAGUUCUACAGUCCGACGAUCUACAAAGCCAUCUUUACAUGCAUUAAACGAGGGCUACAACAAUAUUGUUUUACAAAUACCCGCACUUUUUUUUCUGUUAUGUACUCCGUGUCCGAGGGUCAAAAUAAUCUUUCUGCUCCGCAACAGAGGAUUGAGCAUCA
B8: chr20:62294722:62294823:+|3pUTR|ENSG00000130703|unk|FALSE|unique (ssRNA)
RNA: GGGAGUUCUACAGUCCGACGAUCCGCACACCGCGUCCGUGUCUCCAGGGGGUUCCUUUCUUCUCACACGUCGCGUGUACCCAUAGCACUCUUGUGUUUCUGUUUUUCCCAGUAUGCAUGUUUAAAAUAGAAGUGACAAGAAUCCAACAGAGGAUUGAGCAUCA
B9: chr21:36416827:36416928:+|3pUTR|ENSG00000159259|unk|total|mutant (ssRNA)
RNA: GGGAGUUCUACAGUCCGACGAUCAACUUUGGAAGGCCGUUGUGUUUGUUUUCUGAUUUUAAAGGUGACGAUGCUUAUUCUUUCCGUAACUAAGUGAAGUGAAAAAGAUGGGUAUCACCCAUCAUCUUCCCACCAGAAGUAACCCAACAGAGGAUUGAGCAUCA
B10: chr6:157944353:157944454:+|3pUTR|ENSG00000130340|unk|total|mutant (ssRNA)
RNA: GGGAGUUCUACAGUCCGACGAUCAGUAAUUCUCCCCACUUGAUUUUUCUUCUAUAAAAUCCCACCGAACAAUGUUUAUGCUACCGCCAUUUAAUAUAUGUACAAAUUGUAAAGAAUAUGUAUAAAUGUUUUACACGAAUGUAACAACAGAGGAUUGAGCAUCA
B11: chr1:40073325:40073426:-|3pUTR|ENSG00000131238|msi1|FALSE|unique (ssRNA)
RNA: GGGAGUUCUACAGUCCGACGAUCGAGGGAAGUAGCACCCAAAUUAAGUUGCUUAAGAGAGGAAAUGUACAUCUUGUAUAACUUAGGGAGCGAAGAAAAUGUAGGCGCGAAAGUGAAAAGUGAGGCAGCUAGUUCUUCCUAUUCCAACAGAGGAUUGAGCAUCA
B12: chr8:65724783:65724899:-|CDS|ENSG00000205268|unk|total|mutant (ssRNA)
RNA: GGGAGUUCUACAGUCCGACGAUCACCGGUGCUCUGAUACCCGCCACAGACAUCAGUCGCCAGAAUGAGUAUCUGUCUUUGUUCCGGUCCCAUUUGGACCGAGGUGAUUUAUGCCCCGAAGACACCAGACACAGACAUUUGGUUCAACAGAGGAUUGAGCAUCA
B13: chr2:128192346:128192447:+|3pUTR|ENSG00000136731|msi1|FALSE|unique (ssRNA)
RNA: GGGAGUUCUACAGUCCGACGAUCAGAAAAUGAUGUUACCACUAAAAUAUUUUCUCCAAGAAGGCAUACUGUAACAGAAAAGAUAGGUAAGAUAUUUUUUUCCCAAGAAGUAAGAAUUGAUUGUGCUGAAUGUUCAAACUCUGGCAACAGAGGAUUGAGCAUCA
B14: chr7:20410991:20411126:+|3pUTR|ENSG00000105855|msi1|total|mutant (ssRNA)
RNA: GGGAGUUCUACAGUCCGACGAUCAAAUUCUGCCUCAAGCAAAGUACCACAUUUUGAAUGUUUUCUCCGAUUUUGAUUGCAAGCCGAUAUCAGCAUUUUUUAAAUGAAAAGCUAUAUUAUCUUCUCCCUUCAAGGCAGCCUAAGCAACAGAGGAUUGAGCAUCA

These binders were tested against MSI1 full-length (mouse, UniProt Q61474 1-362) (assay: nsRBNS (natural sequence RNA bind-n-seq); RBNS binding buffer (assumed for nsRBNS): 25 mM Tris pH 7.5, 150 mM KCl, 3 mM MgCl2, 0.01% Triton X-100, 500 ug/ml BSA, 20 U/ml SUPERase-In, 4 C; UNK is unkempt and MSI1 is Musashi-1; names of the RNAs are library labels; protein concentration not given here; high values mean tight binding).
UniProt Q61474, sequence (Q61474 whole entry): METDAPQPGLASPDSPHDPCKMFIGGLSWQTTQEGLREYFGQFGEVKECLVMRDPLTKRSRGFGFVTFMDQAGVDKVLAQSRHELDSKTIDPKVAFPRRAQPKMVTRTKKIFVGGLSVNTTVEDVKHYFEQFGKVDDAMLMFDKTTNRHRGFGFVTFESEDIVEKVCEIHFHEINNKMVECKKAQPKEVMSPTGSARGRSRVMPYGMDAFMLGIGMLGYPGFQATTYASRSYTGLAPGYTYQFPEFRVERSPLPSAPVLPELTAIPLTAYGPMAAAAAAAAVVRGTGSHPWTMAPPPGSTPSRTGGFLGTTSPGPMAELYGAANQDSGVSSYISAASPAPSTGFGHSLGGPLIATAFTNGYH

Binder	binding signal
B1	0.609 enrichment R
B2	0.392 enrichment R
B3	7.36 enrichment R
B4	0.412 enrichment R
B5	0.246 enrichment R
B6	0.567 enrichment R
B7	0.397 enrichment R
B8	0.55 enrichment R
B9	0.171 enrichment R
B10	0.968 enrichment R
B11	0.871 enrichment R
B12	0.342 enrichment R
B13	0.593 enrichment R
B14	0.319 enrichment R
